In PMC10726135 one finds binding signal (log2 normalized intensity) data, which are given here for 40 sequences.

Some of the results follow. At the low end of the ranking the order means little. The protein was read in a cell extract, so binding may be indirect.

This assay addresses T1, HNF4alpha2 (COS-7 nuclear extract) (UniProt P41235).
T1 sequence: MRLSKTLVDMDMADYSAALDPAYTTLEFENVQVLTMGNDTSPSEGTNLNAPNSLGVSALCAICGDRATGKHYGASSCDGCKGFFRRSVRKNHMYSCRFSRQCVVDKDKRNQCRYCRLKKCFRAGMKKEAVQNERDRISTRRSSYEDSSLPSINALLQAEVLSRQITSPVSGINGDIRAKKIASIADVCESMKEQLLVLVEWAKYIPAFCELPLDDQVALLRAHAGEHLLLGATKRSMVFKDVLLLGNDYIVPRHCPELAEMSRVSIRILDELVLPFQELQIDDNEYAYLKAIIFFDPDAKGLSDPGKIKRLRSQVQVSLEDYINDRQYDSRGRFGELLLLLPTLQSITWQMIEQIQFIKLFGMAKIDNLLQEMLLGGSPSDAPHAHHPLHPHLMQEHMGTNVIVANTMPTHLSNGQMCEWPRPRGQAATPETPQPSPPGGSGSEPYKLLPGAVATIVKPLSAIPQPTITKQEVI
Briefly: protein-binding microarray. Conditions: COS-7 nuclear extract on double-stranded Agilent 4x180k PBM; binding buffer, salt, pH and temperature not given; high values mean tight binding; double strand, one strand shown; sequences stand for … in …GCCTAGGGAGATTAGAGTATCGGTCGA
CCAGTTAATGCTGAACTTTAGCTCACTGTT: the binding signal (log2 normalized intensity) was 1.77.

Turning to GTAACTATGGGGCAAAGTGCAAGCAAACAT, the binding signal (log2 normalized intensity) was 2.56.

Take GATTTTCAGGTTCCCCAGTGAGGATGTGTG: the binding signal (log2 normalized intensity) is 1.93.

Regarding TGCCCCCGATAGCACTATTAGTCTTAGATT, the binding signal (log2 normalized intensity) was 1.99.

Regarding ATGTCTCCAGAAACCAACCTTTGATCATTC, the binding signal (log2 normalized intensity) came out at 4.87.

Take GCCCACTCCTCCCTCAGGGATCTTTGCACT: the binding signal (log2 normalized intensity) worked out at 2.45.

Regarding AGGGTCAAAGGGTCAAGTTCAGATCCTGGC, the binding signal (log2 normalized intensity) turned out to be 4.58.

Take GTCAAACTGGTTTCTTGTCTGCCCCAGGGC: the binding signal (log2 normalized intensity) worked out at 2.34.

As to TTTAGGCTGTCAGCCACCAAAGCAGCTAGC, the binding signal (log2 normalized intensity) is -1.05.

On to GTCAAGCAATGATCTTCATGAACTTCTGTC, for which the binding signal (log2 normalized intensity) is 1.26.

Consider CCACAAGGGTTTAAATCTGACTGCACTGCA, for which the binding signal (log2 normalized intensity) was -1.02.

With GTGCTGGGATTACAGGCGTGAGCCACCGCG, the binding signal (log2 normalized intensity) was -1.01.

Regarding TAATCTTCACTAGACCTAGATAAGGGAGAT, the binding signal (log2 normalized intensity) is -1.12.

In the case of TGTTCTAGCTCGGGGGCCCTTCCCCCCTCT, the binding signal (log2 normalized intensity) stood at 2.64.

For TGACCACATGCCCTCAGTACAGGGCGTCCT, the binding signal (log2 normalized intensity) is -0.194.

For the sequence ATATTCTCTCGTCACCTCCACCCACCCGTG, the binding signal (log2 normalized intensity) was found to be 4.48.

Turning to TATTAGAGTCCCTTTTTTAGACAAGGAAAA, the binding signal (log2 normalized intensity) is 0.595.

Regarding AGAAAGGCAGAAAACTCAGATTCCTATGGT, the binding signal (log2 normalized intensity) was -0.875.

With GTCACTCCCACCCTTCCTGTTATGTTTTTT, the binding signal (log2 normalized intensity) worked out at 2.11.

Consider GGACTTGGGACTTTCGAGTTAATGCTGGAG, for which the binding signal (log2 normalized intensity) turned out to be 2.54.

CCAGGTGTAGATAAACTGGAAAGGGCTTCA: the binding signal (log2 normalized intensity) was -1.18.

As for TTGTTGACATCTGCTTCCAAAGAGCTCAAC, the binding signal (log2 normalized intensity) was -0.7.

GTTCTGGACTTCTCTGCCCTCTTCCCTCTA: the binding signal (log2 normalized intensity) worked out at 2.62.

As for AAAGGTCTGCTGTACATATTTGCCAAGTGA, the binding signal (log2 normalized intensity) turned out to be 1.39.

Take TTACAAAGGTCACACACCTGTGCAAACATT: the binding signal (log2 normalized intensity) is 0.854.

For AGTTGGTGAGAACAGAGTCTCCGAGGAACC, the binding signal (log2 normalized intensity) is -1.13.

With CTTCCTGGCCCTAGCTGGGTTTTTCAAAGG, the binding signal (log2 normalized intensity) amounted to 0.868.

CAAAGGTCAGGACAAGGCTCTGGTGGGGAA: the binding signal (log2 normalized intensity) amounted to 1.36.

Consider GGGATGTTTGGCAGCTGAGGATTGTCAGGC, for which the binding signal (log2 normalized intensity) amounted to 0.513.

Turning to CCCCTTCTGAGTCTCCAATGTCCATTATAT, the binding signal (log2 normalized intensity) turned out to be 1.37.

On to ACAAGAGGAATGTTCATTCATTCACCTTTC, for which the binding signal (log2 normalized intensity) turned out to be 0.817.

GGCGCGCGGGCCGGGAGGGGGACGCTTTCT: the binding signal (log2 normalized intensity) is -1.18.

For the sequence CAAACTTCTCCACTCTTCATAATTACCATT, the binding signal (log2 normalized intensity) turned out to be 0.957.

As to TCTGAGGGCCAGCAGTGCCCAAAGCCCAAG, the binding signal (log2 normalized intensity) is -1.17.

Regarding AATGTGATAGACAGGATGCCTGAGTAATTA, the binding signal (log2 normalized intensity) was -0.305.

Consider CATTCCATTACTGCAGAGGCTGGTTCACAC, for which the binding signal (log2 normalized intensity) stood at 1.06.

Take TACAGAGGCTCTGAGAGTCTCAGTGACTCA: the binding signal (log2 normalized intensity) was -1.24.

Consider CTGTTATCAGAGCTGGAGGAGACCTTTGGA, for which the binding signal (log2 normalized intensity) is 5.09.

For the sequence CAGCAGACTCAGAAAAATATGTGGACTTCA, the binding signal (log2 normalized intensity) was determined as 2.49.

TAAAGTTCATTGCTTTGAGCATGAGAGTTC: the binding signal (log2 normalized intensity) stood at 0.748.
